Laboratory results published in PubChem BioAssay AID463173 (ICCB-Longwood Screening Facility, Harvard Medical School, 2010).
Out of some 52,000 compounds screened, about 1,700 (3.3%) were called active. Rule as the data show it: active = survival mostly below about 52% (no sharp cut-off); inactive = mostly above about 56%. This is one part of the list.

The compounds below were run on Wild type (assay: growth inhibition of S. aureus wild type versus tarO mutant, primary screen, teichoic acid synthesis inhibitors, RN4220, OD600 (AID 463173)). Details: S. aureus RN4220 wild type/DeltatarO growth, OD600, 18 h, hits give low values, screened at 18.75 µg/mL (by protocol).
In the case of `Cc1nn(C(C)C(=O)NC2CCC(C)CC2)c(=O)c2cc3sccc3n12` (stereo not given), the survival is reported as inactive: 81%.
With `COc1ccccc1N1CCN(C(=O)c2cn(C)c3ccc(S(=O)(=O)N4CCOCC4)cc3c2=O)CC1` the survival was inactive: 75%.
With `CN(C)c1ccc(CNC(=O)CCCn2ccc3cc(S(=O)(=O)N4CCCC4)ccc32)cc1` the survival was active: 0%.
In the case of `COc1ccc(OC)c(S(=O)(=O)N2CC=C(c3c(C)n(CC(=O)N4CCCC4)c4ccccc34)CC2)c1`, the survival is reported as inactive: 83%.
For `CCOc1ccc(C2C(C(=O)Nc3ccc(Cl)cc3)=C(C)Nc3nc(C(F)(F)F)nn32)cc1` (stereo not given), the survival was inactive: 37%.
In the case of `O=S(=O)(c1ccc(Cl)cc1)c1nnn2c1nc(N1CCCCC1)c1sccc12`, the survival is reported as inactive: 76%.
`Cc1ccccc1NC(=O)CN(c1ccc(Cl)cc1Cl)S(=O)(=O)c1ccccc1` was tested, and the survival was inactive: 62%.
For `Cc1ccc(C)c(N/C=C(\C#N)c2nc3ccccc3o2)c1`, the survival was inactive: 108%.
In the case of `Fc1ccccc1-n1ncc2c1ncn1nc(Cc3ccccc3)nc21`, the survival is reported as inactive: 79%.
With `Cc1ccc2c(c1)-c1c(c(C(=O)N3CCN(c4cc(Cl)ccc4C)CC3)nn1C)CS2` the survival was inactive: 73%.
`CC(CNC(=O)CCS(=O)(=O)c1ccc2c(c1)oc(=O)n2C)c1ccccc1` (stereo not given) was tested, and the survival was inactive: 82%.
For `Cc1cccc(NC(=O)N2CCC(CN3CCOCC3)CC2)c1C`, the survival was inactive: 93%.
For `Cc1cn(C)c(CC(=O)N2CCN(c3ccccc3F)CC2)c1C(=O)O`, the survival was inactive: 69%.
`COc1ccc(-c2nc3sc(CCNC(=O)c4ccccc4C)c(C)n3n2)cc1` was tested, and the survival was inactive: 73%.
In the case of `O=S(=O)(NCc1ccccc1Cl)c1ccc(N2CCCCS2(=O)=O)cc1`, the survival is reported as inactive: 152%.
`O=C(Cn1nnc(-c2ccncc2)n1)NCCc1ccccc1` was tested, and the survival was inactive: 99%.
With `Cc1c(C(=O)NCCc2ccc(S(N)(=O)=O)cc2)sc2nc3n(c(=O)c12)CCCC3` the survival was inactive: 87%.
With `Cc1cccn2c(=O)c3cc(C(=O)N(Cc4ccccc4)C(C)C)sc3nc12` the survival was inactive: 77%.
With `Cc1cccc(C(=O)Nc2nc(-c3nnn(-c4cc(F)ccc4F)c3C)ns2)c1` the survival was inactive: 133%.
For `CCCCN(C)CCNC(=O)c1ccc2c(c1)NC(=O)CN2`, the survival was inactive: 78%.
For `CC1CCN(S(=O)(=O)c2ccc3c(c2)N(CC(=O)O)C(=O)CO3)CC1`, the survival was inactive: 78%.
`COc1ccc(-c2cc(C(F)(F)F)n3nc(C(=O)NCC45CC6CC(CC(C6)C4)C5)cc3n2)cc1OC` was tested, and the survival was inactive: 129%.
With `Cc1cccc(Cn2c(C)c(CNC3CCCCC3)c(C(=O)O)c2C)c1` the survival was inactive: 91%.
For `Cc1cc(Cl)ccc1NC(=O)C1CCN(c2nnc(-n3c(C)ccc3C)s2)CC1`, the survival was inactive: 81%.
For `CCOC(=O)c1ccccc1NC(=O)N1CCOc2ccc(Cl)cc21`, the survival was inactive: 112%.
In the case of `Cc1ccc2ccc3cc(C(=O)N4CCN(c5ccccc5)CC4)nc3c2[nH]1`, the survival is reported as inactive: 128%.
With `CC(=O)Nc1ccc(-c2nnc(SCC(=O)c3ccc([N+](=O)[O-])cc3)o2)cc1` the survival was inactive: 87%.
With `Cc1ccc(NC(=O)C(=O)NCC(c2cccnc2)N2CCN(Cc3ccccc3)CC2)cc1` (stereo not given) the survival was inactive: 85%.
`CCc1ccccc1NC(=O)CSc1nc2c(oc3ccccc32)c(=O)n1-c1ccccc1F` was tested, and the survival was inactive: 90%.
In the case of `O=C(O)CCC(=O)CCN1CCCCC1`, the survival is reported as inactive: 108%.
In the case of `Cc1cc(C)c(NC(=O)CSc2nc(-c3ccc(F)cc3)nc3c2Cc2c(CO)cnc(C)c2O3)c(C)c1`, the survival is reported as inactive: 83%.
For `O=c1c2c([nH]c3ccccc13)CCCCC2`, the survival was inactive: 101%.
In the case of `O=C(Cn1ncc2c3ccccc3n(Cc3ccccc3F)c2c1=O)N1CCCCC1`, the survival is reported as inactive: 127%.
In the case of `CC(C)CN(CCCNC(=O)CN1N=C(c2ccccc2)CCC1=O)CC(C)C`, the survival is reported as inactive: 134%.
`CCOc1ccc(CCNC(=O)c2[nH]c3cc(OC)ccc3c2Sc2ccccc2)cc1OCC` was tested, and the survival was inactive: 81%.
`CCOC(=O)C1=C(CN(CC)Cc2ccccc2)NC(=O)NC1c1ccc(OC(C)C)cc1` (stereo not given) was tested, and the survival was inactive: 72%.
In the case of `COc1ccccc1CNC(=O)c1ccc(N2CCCC2)c(NC(=O)NCc2ccc(F)cc2)c1`, the survival is reported as inactive: 121%.
For `CCCCSCCCNC(=O)C1CCN(Cc2nc(-c3cccc(Br)c3)oc2C)CC1`, the survival was inactive: 90%.
`COc1ccc(N2CCN(c3ccc(-c4nc(-c5cccc(C)c5)no4)cc3[N+](=O)[O-])CC2)cc1` was tested, and the survival was inactive: 89%.
For `O=C(NCCC1=CCCCC1)c1ccc2c(c1)N(Cc1cccc(Cl)c1)C(=O)c1ccccc1S2(=O)=O`, the survival was inactive: 73%.
`CC(=O)c1cc2c(cc1NC(=O)c1cnn(-c3ccc(C)cc3)c1-n1cccc1)OCO2` was tested, and the survival was inactive: 68%.
`CCOc1ccc(C(=O)N2CCN(CCc3ccccn3)CC2)cc1` was tested, and the survival was inactive: 84%.
For `Cc1nn(-c2ccc(N3CCCC3)nn2)c(C)c1CCC(=O)NCc1ccc(OC(C)C)cc1`, the survival was inactive: 69%.
For `Cn1c(=O)[nH]c(=O)c2c1nc1n2CCN1c1ccccc1`, the survival was inactive: 153%.
With `CCOc1ccc(S(=O)(=O)c2cn(Cc3ccc(OC)cc3)c3ccc(F)cc3c2=O)cc1` the survival was inactive: 77%.
With `CCOc1ccc(NC(=O)Cn2c(=O)cc(C)c3c(C)nn(-c4cccc(Cl)c4C)c32)cc1` the survival was inactive: 146%.
For `CCOC(=O)CC(NC(=O)CCc1c(C)nc2ncnn2c1C)c1ccc(OC(C)C)cc1` (stereo not given), the survival was inactive: 127%.
With `CC(C)c1ccc(NC(=O)CCNS(=O)(=O)c2ccc3c(c2)CCCC(=O)N3)cc1` the survival was inactive: 98%.
In the case of `CCOC(=O)c1ccccc1NC(=O)CSc1cn(CC(=O)N2CCOCC2)c2ccccc12`, the survival is reported as inactive: 103%.
`COc1ccc(CNC(=O)C2CCC(CNS(=O)(=O)c3cccs3)CC2)cc1` (stereo not given) was tested, and the survival was inactive: 78%.
In the case of `Cc1ccccc1CSc1nc2cccnc2n1Cc1ccc(C(=O)NC2CC2)cc1`, the survival is reported as inactive: 71%.
In the case of `CCOc1ccc(Nc2nc(C)c(NC(=O)c3cccc(OC)c3)c(Nc3ccc(OCC)cc3)n2)cc1`, the survival is reported as inactive: 128%.
`Cc1ccc(-c2nc(S(=O)(=O)c3ccc(C)cc3)c(N3CCCCCC3)o2)cc1` was tested, and the survival was inactive: 84%.
With `Cc1ccc(N2CCN(S(=O)(=O)c3nnc(NC(=O)c4ccc(C(C)C)cc4)s3)CC2)cc1` the survival was inactive: 82%.
`CCCn1c(=S)[nH]c2c1c(=O)[nH]c(=O)n2C` was tested, and the survival was inactive: 101%.
